Results: patent US20140105855A1 (published 2014)

Biological target: T1, preformed IL-17RC-IL-17F complex (IL-17F captured by immobilised IL-17RC) (;human, UniProt Q8NAC3 21-538; Q96PD4 31-163, biotin on the C-terminal BirA ligase tag)
T1 chain 1: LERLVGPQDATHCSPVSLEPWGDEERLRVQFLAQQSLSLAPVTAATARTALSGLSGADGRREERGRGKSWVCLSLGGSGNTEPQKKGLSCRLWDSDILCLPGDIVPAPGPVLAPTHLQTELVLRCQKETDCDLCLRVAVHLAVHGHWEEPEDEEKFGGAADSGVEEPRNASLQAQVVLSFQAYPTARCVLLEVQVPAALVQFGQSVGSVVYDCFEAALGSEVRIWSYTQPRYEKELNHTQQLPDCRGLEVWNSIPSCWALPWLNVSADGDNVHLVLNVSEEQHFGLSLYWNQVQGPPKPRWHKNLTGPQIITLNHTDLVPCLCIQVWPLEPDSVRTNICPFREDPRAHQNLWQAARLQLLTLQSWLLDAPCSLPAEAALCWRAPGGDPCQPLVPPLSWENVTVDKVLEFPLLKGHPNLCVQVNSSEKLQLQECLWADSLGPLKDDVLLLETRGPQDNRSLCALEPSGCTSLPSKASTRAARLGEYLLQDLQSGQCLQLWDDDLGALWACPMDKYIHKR
T1 chain 2: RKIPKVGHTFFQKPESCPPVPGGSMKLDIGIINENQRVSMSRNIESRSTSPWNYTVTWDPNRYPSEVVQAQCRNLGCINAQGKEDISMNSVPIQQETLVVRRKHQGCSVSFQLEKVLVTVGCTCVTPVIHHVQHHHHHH
Experiment: SPR; second receptor binding to preformed complex

Kd: 23.8 µM
B1: IL-17RA extracellular domain (ECD) (receptor)
chain: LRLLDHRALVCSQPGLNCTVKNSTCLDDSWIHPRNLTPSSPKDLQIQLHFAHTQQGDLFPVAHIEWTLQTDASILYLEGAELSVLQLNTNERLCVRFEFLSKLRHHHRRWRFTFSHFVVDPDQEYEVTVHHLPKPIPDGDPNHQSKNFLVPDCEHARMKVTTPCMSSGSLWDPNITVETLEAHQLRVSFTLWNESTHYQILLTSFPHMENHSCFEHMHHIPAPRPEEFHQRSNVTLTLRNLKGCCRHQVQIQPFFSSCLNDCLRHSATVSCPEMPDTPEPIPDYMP
